Assay results taken from the supplement of paper PMC3334620.
Whole data set: some 33,000 sequences, median “E-score (-0.5 to 0.5)” near -0.054, cut for the highest 2% near 0.35. Some of the results follow.

Molecular target: T1, Stb5 (UniProt P38699)
T1 sequence: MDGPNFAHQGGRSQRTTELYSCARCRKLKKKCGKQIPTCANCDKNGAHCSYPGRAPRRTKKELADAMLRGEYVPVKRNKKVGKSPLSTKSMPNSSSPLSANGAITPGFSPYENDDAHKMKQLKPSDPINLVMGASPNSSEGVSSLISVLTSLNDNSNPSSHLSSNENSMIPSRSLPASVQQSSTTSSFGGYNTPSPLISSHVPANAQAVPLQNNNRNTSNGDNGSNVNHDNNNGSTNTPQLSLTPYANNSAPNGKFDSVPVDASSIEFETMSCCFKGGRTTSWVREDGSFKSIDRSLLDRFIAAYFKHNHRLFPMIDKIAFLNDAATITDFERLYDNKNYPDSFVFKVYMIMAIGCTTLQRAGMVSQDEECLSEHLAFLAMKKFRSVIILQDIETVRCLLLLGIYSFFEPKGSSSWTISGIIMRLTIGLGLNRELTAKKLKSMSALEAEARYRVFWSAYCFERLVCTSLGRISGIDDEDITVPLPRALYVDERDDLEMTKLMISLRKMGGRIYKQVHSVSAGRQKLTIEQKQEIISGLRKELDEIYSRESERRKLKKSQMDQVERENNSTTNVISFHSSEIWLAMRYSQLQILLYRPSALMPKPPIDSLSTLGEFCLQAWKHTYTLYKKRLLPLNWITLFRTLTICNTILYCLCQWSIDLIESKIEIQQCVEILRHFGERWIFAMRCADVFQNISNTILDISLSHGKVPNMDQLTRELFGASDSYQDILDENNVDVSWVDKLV
Test: PBM E-score (8-mer binding enrichment) (E-score (-0.5 to 0.5)); higher = stronger / more preferred TF binding; most listed sequences are background and not binding sites
Conditions: protein concentration: 200 nM; construct: GST-full length
Procedure, shortened: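 PURExpress in vitro transcription/translation supplied GST-tagged yeast transcription factors, either full-length or DNA-binding domain. Applied at about 100-200 nM to universal all-10-mer Agilent arrays double-stranded by primer extension, the bound protein was detected with fluorescent anti-GST. E-scores, modified Wilcoxon-Mann-Whitney statistics, were given by the Universal PBM Analysis Suite to ungapped eight-base words pooled with their reverse complements after masliner normalisation.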

Sequence	PBM E-score
GAGTAAAC	-0.143
GTTAGAAC	0.0768
AGCTCGGG	0.108
ATTACGTA	0.0812
GCGATGTA	-0.00528
AATCAGTA	-0.135
ACCTCTGC	-0.169
GGACGTGA	-0.111
AGTCTGTG	-0.27
AGTACCAG	-0.0537
AATGCTTC	-0.107
AGATATAA	0.138
ATCGTTCA	-0.0773
CTTTTTCA	-0.244
CCAAGACC	0.1
CTAAAGAC	0.0363
CCCTAAGA	-0.0919
ACTGATTG	-0.359
AGGGAACG	-0.0157
AACCTATT	-0.00616
ACCTGGCG	0.0914
TCAGTGAA	-0.111
ATCCACCC	-0.0516
CCATGATC	-0.0309

Sequence	PBM E-score
CAACTGCC	0.0337
GGCCTAAC	0.181
GCTAGGGA	-0.193
GATCCAGC	-0.161
ATTCTGGC	-0.0252
AAAGAAAC	0.0303
AAAAATCC	0.262
ATGAGCAC	-0.119
ACGTGAAG	-0.205
CAGCGAGA	-0.198
CCACGTAC	-0.199
AGCTATAA	0.0235
CGGGGAAG	0.176
GGGTCAAC	0.0164
TGAGGGCA	-0.259
GGGTTCGA	-0.145
ACATCTAC	-0.0618
TCCTACCA	-0.166
ATTCCTTG	-0.116
GCAGTTAA	0.166
GAAGGAAA	-0.104
ATTAGGGC	-0.106
AATATCCC	0.291
ATTGAACC	0.0635

Sequence	PBM E-score
CAAATGCG	-0.0783
AACGTCAG	-0.286
CATCGTTC	-0.0976
AGCCGCAC	0.152
AACGCTGT	0.129
GGTGTCAA	0.225
GAACTTCA	-0.157
GAGATAGC	-0.0635
AGTGCCGA	0.387
CCCGCTAG	0.272
CAGAGTTC	-0.0957
CGCCTCAC	-0.109
GCTAAAAC	0.146
AGGACGGG	0.175
TAGCGTAA	-0.0609
CGCCCTTC	-0.00564
CCTGACGA	-0.256
CTAGCCTA	0.0929
GGTACAAC	-0.0464
CTCTGCGC	-0.116
AGTATTGC	-0.0296
CCAGGCAC	-0.0587
CCCTCTCG	-0.0887
CTCATTGC	-0.252

Sequence	PBM E-score
GAATTTCA	-0.15
ATTAGATA	-0.261
AGCCTCCA	-0.0711
CAACCAAC	-0.174
TTCGGAAA	0.133
AGGGTAAG	-0.0998
AGATGAAT	-0.326
TAAACGCA	0.058
CCGGACTA	0.304
TCCCACGA	-0.124
GCTAGGTA	-0.0526
AGGCTTAC	-0.168
AAAAACGT	-0.149
CGGCATAC	0.232
AAGTTGTG	-0.248
CACACGAC	0.059
AACAAATA	0.0288
ATTACACG	0.00285
GGAGCGAC	0.0737
GAACTCTA	-0.101
CGTTGGGC	0.0736
AGGCTGAT	-0.25
